# ± gives the standard deviation of the averaged measurements. Growth of baker's yeast expressing single-residue variants of Pneumocystis jirovecii dihydrofolate reductase in 8.8 or 44 µM methotrexate (about 75% and 90% inhibition of the wild type). Selection coefficient per generation; 0 = like wild type, above 0 = less sensitive, below 0 = more sensitive or loss of function. No active / inactive call per row; the paper calls resistant above 0.220 (8.8 µM) or 0.243 (44 µM) together with a significance test. At 44 µM about 15% of codons end with one read or none, so the lowest values are floors (replicate rank correlation 0.74; 0.94 at 8.8 µM).
# B1: UniProt A0EPZ9; numbered along this chain (parent)
# chain: MDWQKSLTLIVALTLSRGIGLKNDLPWKLKSDMMFFSRVTSGLLVTRSTGQMNVVLMGRKTWESLPAHSRPLKNRINVVISRQEVLDLGGGAYHARSLDDALALLSQIYDSTSKIQLNRVFVIGGGELCKAAMEHSRLNRIIATVIHNEVDCDVFFPIDFRSSQSCLPWRKQDHSVLEAWVGSKVPQGKINENGFIYEFEMWIRDI
# Variants of: B1
# Test: selection coefficient against synonymous wild-type codons (log2 per generation); higher = faster growth than wild type
# Conditions: with Saccharomyces cerevisiae carrying the variant on a plasmid
# Method: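 Pooled growth of yeast carrying single-residue variants of P. jirovecii dihydrofolate reductase (own DFR1 gene intact), two passages at 30 °C, three cultures, sequenced before and after. Codons with under 15 starting reads are left out; codons of one change are averaged.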
Variant,selection coefficient against synonymous wild-type codons (log2) (methotrexate 8.8 µM),selection coefficient against synonymous wild-type codons (log2) (methotrexate 44 µM)
E149I,-0.316 ± 0.16,-0.277 ± 0.097
E149K,-0.0972 ± 0.064,-0.183 ± 0.1
E149L,-0.388 ± 0.13,-0.392 ± 0.095
E149M,-0.334 ± 0.064,-0.422 ± 0.1
E149N,-0.053 ± 0.1,-0.194 ± 0.14
E149P,0.0576 ± 0.051,0.00778 ± 0.1
E149Q,-0.0686 ± 0.017,-0.153 ± 0.21
E149R,-0.137 ± 0.065,-0.212 ± 0.13
E149S,-0.087 ± 0.047,-0.0293 ± 0.2
E149T,-0.112 ± 0.038,-0.165 ± 0.23
E149V,-0.228 ± 0.056,-0.293 ± 0.13
E149W,-0.281 ± 0.074,-0.401 ± 0.12
E149Y,-0.309 ± 0.17,-0.24 ± 0.044
V150A,0.064 ± 0.049,-0.00536 ± 0.056
V150C,-0.19 ± 0.04,-0.246 ± 0.01
V150D,0.357 ± 0.021,0.296 ± 0.04
V150E,0.384 ± 0.03,0.37 ± 0.033
V150F,-0.107 ± 0.039,-0.151 ± 0.12
V150G,0.174 ± 0.049,0.0945 ± 0.056
V150H,0.146 ± 0.014,0.0224 ± 0.14
V150I,-0.0595 ± 0.04,-0.148 ± 0.24
V150K,0.299 ± 0.052,0.235 ± 0.03
V150L,-0.151 ± 0.042,-0.308 ± 0.11
V150M,-0.00418 ± 0.033,-0.106 ± 0.076

Variant,selection coefficient against synonymous wild-type codons (log2) (methotrexate 8.8 µM),selection coefficient against synonymous wild-type codons (log2) (methotrexate 44 µM)
V150N,0.346 ± 0.053,0.328 ± 0.035
V150P,0.0807 ± 0.053,-0.0305 ± 0.062
V150Q,0.364 ± 0.01,0.293 ± 0.14
V150R,0.135 ± 0.055,0.0356 ± 0.079
V150S,0.122 ± 0.045,0.0135 ± 0.13
V150T,0.0994 ± 0.037,0.00459 ± 0.089
V150W,0.0816 ± 0.066,0.0234 ± 0.049
V150Y,0.0608 ± 0.018,0.00409 ± 0.15
D151A,-0.0884 ± 0.048,-0.141 ± 0.12
D151C,-0.288 ± 0.13,-0.158 ± 0.11
D151E,-0.083 ± 0.085,-0.12 ± 0.08
D151F,-0.369 ± 0.026,-0.297 ± 0.054
D151G,-0.0894 ± 0.063,-0.186 ± 0.08
D151H,-0.0972 ± 0.12,-0.168 ± 0.044
D151I,-0.221 ± 0.07,-0.18 ± 0.46
D151K,-0.147 ± 0.078,-0.212 ± 0.14
D151L,-0.311 ± 0.096,-0.268 ± 0.19
D151M,-0.217 ± 0.042,-0.311 ± 0.068
D151N,-0.0556 ± 0.058,-0.137 ± 0.044
D151P,-0.0597 ± 0.056,-0.127 ± 0.19
D151Q,-0.0815 ± 0.07,0.077 ± 0.38
D151R,-0.208 ± 0.065,-0.128 ± 0.23
D151S,-0.0671 ± 0.037,-0.181 ± 0.12
D151T,-0.152 ± 0.071,-0.227 ± 0.088

Variant,selection coefficient against synonymous wild-type codons (log2) (methotrexate 8.8 µM),selection coefficient against synonymous wild-type codons (log2) (methotrexate 44 µM)
D151V,-0.291 ± 0.098,-0.186 ± 0.18
D151W,-0.325 ± 0.077,-0.323 ± 0.059
D151Y,-0.271 ± 0.079,-0.378 ± 0.05
C152A,0.00794 ± 0.046,-0.0741 ± 0.1
C152D,0.0824 ± 0.054,0.205 ± 0.02
C152E,0.407 ± 0.05,0.434 ± 0.027
C152F,0.0659 ± 0.065,0.0186 ± 0.044
C152G,0.478 ± 0.033,0.542 ± 0.028
C152H,0.254 ± 0.045,0.23 ± 0.018
C152I,0.214 ± 0.033,0.189 ± 0.05
C152L,0.357 ± 0.037,0.391 ± 0.038
C152M,0.456 ± 0.0098,0.503 ± 0.11
C152N,0.416 ± 0.07,0.411 ± 0.048
C152P,0.242 ± 0.05,0.309 ± 0.019
C152Q,0.362 ± 0.013,0.372 ± 0.024
C152R,0.332 ± 0.062,0.392 ± 0.057
C152S,0.138 ± 0.034,0.0544 ± 0.057
C152T,0.191 ± 0.037,0.123 ± 0.002
C152V,0.0263 ± 0.036,-0.00895 ± 0.093
C152W,0.281 ± 0.067,0.314 ± 0.024
C152Y,0.123 ± 0.048,0.076 ± 0.14
D153A,0.167 ± 0.031,0.0806 ± 0.042
D153C,-0.0264 ± 0.048,-0.135 ± 0.078
D153E,0.167 ± 0.06,0.0779 ± 0.085

Variant,selection coefficient against synonymous wild-type codons (log2) (methotrexate 8.8 µM),selection coefficient against synonymous wild-type codons (log2) (methotrexate 44 µM)
D153F,-0.359 ± 0.018,-0.305 ± 0.034
D153G,0.279 ± 0.045,0.286 ± 0.028
D153H,0.145 ± 0.065,0.0166 ± 0.15
D153I,-0.48 ± 0.26,-0.384 ± 0.022
D153K,0.204 ± 0.067,0.171 ± 0.053
D153L,-0.307 ± 0.088,-0.267 ± 0.087
D153M,-0.112 ± 0.014,-0.111 ± 0.058
D153N,0.0713 ± 0.051,0.0378 ± 0.035
D153P,-0.208 ± 0.097,-0.127 ± 0.14
D153Q,0.186 ± 0.037,0.191 ± 0.02
D153R,0.232 ± 0.058,0.216 ± 0.062
D153S,0.0671 ± 0.049,-0.0605 ± 0.1
D153T,-0.0424 ± 0.054,-0.179 ± 0.15
D153V,-0.318 ± 0.031,-0.218 ± 0.12
D153W,-0.362 ± 0.049,-0.474 ± 0.0092
D153Y,-0.256 ± 0.068,-0.139 ± 0.087
V154A,0.123 ± 0.043,-0.0501 ± 0.11
V154C,0.0669 ± 0.051,0.0854 ± 0.088
V154D,0.276 ± 0.032,0.442 ± 0.055
V154E,0.383 ± 0.038,0.485 ± 0.035
V154F,-0.0541 ± 0.069,-0.077 ± 0.089
V154G,0.381 ± 0.019,0.536 ± 0.02
V154H,0.25 ± 0.023,0.0928 ± 0.05
V154I,0.14 ± 0.044,-0.0451 ± 0.075

Variant,selection coefficient against synonymous wild-type codons (log2) (methotrexate 8.8 µM),selection coefficient against synonymous wild-type codons (log2) (methotrexate 44 µM)
V154K,0.351 ± 0.046,0.345 ± 0.055
V154L,0.164 ± 0.057,0.133 ± 0.081
V154M,0.0806 ± 0.017,0.0646 ± 0.016
V154N,0.363 ± 0.074,0.384 ± 0.021
V154P,-0.464 ± 0.16,-0.188 ± 0.067
V154Q,0.422 ± 0.052,0.426 ± 0.034
V154R,0.359 ± 0.068,0.393 ± 0.044
V154S,0.329 ± 0.025,0.328 ± 0.062
V154T,0.096 ± 0.063,-0.0213 ± 0.012
V154W,-0.0494 ± 0.063,-0.139 ± 0.12
V154Y,-0.1 ± 0.061,-0.048 ± 0.095
F155A,0.419 ± 0.041,0.414 ± 0.032
F155C,0.18 ± 0.06,0.115 ± 0.08
F155D,0.536 ± 0.039,0.576 ± 0.02
F155E,0.46 ± 0.052,0.49 ± 0.026
F155G,0.516 ± 0.034,0.6 ± 0.033
F155H,0.142 ± 0.086,0.0749 ± 0.091
F155I,0.184 ± 0.037,0.17 ± 0.094
F155K,0.29 ± 0.036,0.242 ± 0.018
F155L,0.148 ± 0.047,0.0829 ± 0.037

# — the supplement of paper PMC11125491
